Experimental data: the antibiotic and cytotoxicity screens of Wong et al. (2023)
This is one part of the list.

Assays:
[1] = system: HSkMC (human skeletal muscle cells); assay: cytotoxicity call (relative viability < 0.9); details: 10 µM
[2] = system: HepG2; assay: cytotoxicity call (relative viability < 0.9); details: 10 µM
[3] = system: S. aureus RN4220; assay: growth inhibition call (relative growth <= 0.2); details: 50 µM

N[C@H]1CC[C@H]2CN(Cc3ccc(Cl)c([N+](=O)[O-])c3)C[C@H]21
inactive: cytotoxicity call [1] | cytotoxicity call [2] | growth inhibition call [3]

COc1ccc(S(=O)(=O)Nc2ccc3c(c2)C(=O)N([C@@H](C)CO)C[C@@H](C)[C@@H](CN(C)S(=O)(=O)c2ccc(Cl)cc2)OCCCC[C@@H](C)O3)cc1
inactive: cytotoxicity call [1] | cytotoxicity call [2] | growth inhibition call [3]

CO[C@H]1CN(C)C(=O)c2ccc(NS(=O)(=O)c3cn(C)cn3)cc2OC[C@@H](C)N(CCC(F)(F)F)C[C@H]1C
inactive: cytotoxicity call [1] | cytotoxicity call [2] | growth inhibition call [3]

Cc1noc(C)c1NC(=O)N(C)C[C@@H]1Oc2ncc(C#CCN(C)C)cc2C(=O)N([C@H](C)CO)C[C@@H]1C
inactive: cytotoxicity call [1] | cytotoxicity call [2] | growth inhibition call [3]

Cn1nnc2c(N3CCC(O)CC3)ncnc21
inactive: cytotoxicity call [1] | cytotoxicity call [2] | growth inhibition call [3]

Nc1cc(=O)[nH]c(=O)n1Cc1ccccc1
inactive: cytotoxicity call [1] | cytotoxicity call [2] | growth inhibition call [3]

CCNC(=O)C[C@H]1C=C[C@H](NC(=O)C2CC2)[C@@H](CO)O1
inactive: cytotoxicity call [1] | cytotoxicity call [2] | growth inhibition call [3]

C[C@H](CO)N1C[C@H](C)[C@H](CN(C)S(=O)(=O)c2ccc(Cl)cc2)Oc2c(NC(=O)Nc3ccc(C(F)(F)F)cc3)cccc2C1=O
inactive: cytotoxicity call [1] | cytotoxicity call [2] | growth inhibition call [3]

C[C@@H]1CN([C@H](C)CO)C(=O)Cc2cc(NC(=O)C3CCCCC3)ccc2O[C@@H]1CN(C)S(=O)(=O)c1cn(C)cn1
inactive: cytotoxicity call [1] | cytotoxicity call [2] | growth inhibition call [3]

Cc1ccc(S(=O)(=O)N(C)C[C@@H]2Oc3ccc(NC(=O)Nc4cccc5ccccc45)cc3C(=O)N([C@@H](C)CO)C[C@@H]2C)cc1
inactive: cytotoxicity call [1] | cytotoxicity call [2] | growth inhibition call [3]
